According to the supplement of paper PMC10126150:
Sequences with one replicate were seen in a single cluster, so their values are uncertain.

System: ATP
Assay: switch fluorescence ratio, 500 uM ATP over buffer (Cy3 cluster intensity, sum of 5 cycles each) (fold (ratio)); higher = stronger signal-on switching upon ATP binding; sequences stand for … in TCGTCGGCAGCGTCAGATGTGTATAAGAGACAGTTTTTTTTTTTTTTTTTTTTTTTTT…TC
Details: aptamer strand: ATP DNA aptamer (quencher-CACCTGGGGGAGTATTGCGGAGGAAGG + anchor), 100 nM annealed; ATP concentration: 500 uM; one replicate
Procedure, shortened: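 Cy3-labelled switching-strand clusters on a modified Illumina MiSeq flow-cell were annealed to 100 nM quencher-labelled ATP aptamer and imaged first in selection buffer, then after 15 min with 500 uM ATP at 22 °C. NaOH stripping and re-annealing separated each of five buffer/ATP cycles, and clusters outside 100-1000 RFU were excluded. The fluorescence ratio sums target-cycle Cy3 intensity over buffer-cycle Cy3 intensity per cluster and averages it per switch-domain sequence.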
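Further: ATP exposure 15 min at 22 °C before imaging.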

| Sequence | switch fluorescence ratio |
| --- | --- |
| AATACGTAG | 1.04 |
| AATACTCCTT | 1.64 |
| AATACTTCCC | 3.02 |
| AATACTTGAC | 1.22 |
| AATAGAACCA | 1.02 |
| AATAGCGG | 0.99 |
| AATAGCTT | 0.976 |
| AATAGGTCTC | 1.04 |
| AATAGGTGCT | 1.08 |
| AATATAAAAC | 1.02 |
| AATATAATCG | 0.966 |
| AATATATTGT | 0.984 |
| AATATCCGCG | 1.14 |
| AATATCTGGG | 0.996 |
| AATATGAAAA | 0.973 |
| AATATGAAC | 1.04 |
| AATATGAGGA | 1.02 |
| AATATGCCCC | 1.06 |
| AATATGGGAA | 1.04 |
| AATATGGGGA | 0.957 |
| AATATTCGGT | 1 |
| AATCA | 0.961 |
| AATCAACTGC | 0.997 |
| AATCAGTAGA | 1 |
| AATCATCAT | 0.998 |
| AATCATCCGT | 1.02 |

| Sequence | switch fluorescence ratio |
| --- | --- |
| AATCATTTGG | 0.972 |
| AATCCAGTT | 0.972 |
| AATCCCATCC | 1.08 |
| AATCCGGGCT | 1.01 |
| AATCCGGGGT | 1.04 |
| AATCCTGGTT | 1.01 |
| AATCGAAGCC | 0.967 |
| AATCGCAATT | 2.39 |
| AATCGCCCGT | 1.01 |
| AATCGGCTTA | 1.06 |
| AATCGGGCGA | 1.03 |
| AATCGTAGCT | 1.03 |
| AATCGTGGG | 1.02 |
| AATCGTGGTC | 1.04 |
| AATCGTTGGA | 0.999 |
| AATCTAAAAA | 1.01 |
| AATCTATAGT | 0.992 |
| AATCTATATG | 1.02 |
| AATCTGACAG | 1 |
| AATCTGTGCT | 0.977 |
| AATCTTGGAT | 0.997 |
| AATGACTTGG | 0.99 |
| AATGCAATT | 0.963 |
| AATGCACCCA | 1.04 |
| AATGCACTTG | 1.04 |
| AATGCATGAA | 1.04 |

| Sequence | switch fluorescence ratio |
| --- | --- |
| AATGCGAAAA | 1.01 |
| AATGCGAGCC | 1.06 |
| AATGCTCCCT | 1.76 |
| AATGCTTGGT | 1.02 |
| AATGGAAAGC | 1 |
| AATGGAGGGC | 0.955 |
| AATGGCAGAG | 0.981 |
| AATGGCGATA | 1.02 |
| AATGGGAATA | 0.986 |
| AATGGGTGCC | 1.01 |
| AATGGTGCTA | 1.01 |
| AATGGTGTCT | 0.957 |
| AATGTAAATT | 0.995 |
| AATGTAGAGC | 1.06 |
| AATGTATACA | 1.04 |
| AATGTCATAA | 0.966 |
| AATGTCATGC | 0.944 |
| AATGTGGGT | 1 |
| AATGTTAATC | 1.02 |
| AATGTTAGAT | 1.01 |
| AATTAACGTT | 1.03 |
| AATTACCTGG | 0.971 |
| AATTACGCAG | 0.97 |
| AATTACGGTC | 0.958 |
| AATTAGAGCT | 1.06 |
| AATTAGGAAC | 0.976 |

| Sequence | switch fluorescence ratio |
| --- | --- |
| AATTAGGGCC | 0.96 |
| AATTAGGTAT | 0.975 |
| AATTAGTT | 1.01 |
| AATTATCGGG | 0.97 |
| AATTATGAGA | 0.989 |
| AATTATGTA | 1.05 |
| AATTATGTT | 0.989 |
| AATTCATGAG | 0.992 |
| AATTCCTATC | 1.03 |
| AATTCGATTC | 0.977 |
| AATTCGGGAT | 0.991 |
| AATTCTATGG | 1.01 |
| AATTCTCTCC | 1 |
| AATTCTTTAA | 0.924 |
| AATTCTTTAC | 1.03 |
| AATTGAACCG | 1.06 |
| AATTGAGACT | 1.03 |
| AATTGAGGG | 1.01 |
| AATTGCAACG | 1.02 |
| AATTGCAACT | 1 |
| AATTGCGACC | 1.07 |
| AATTGCGCGG | 1.02 |
| AATTGCTCCC | 1.25 |
| AATTGGTCGC | 0.958 |
| AATTGTCAAC | 0.96 |
| AATTGTTCGG | 1.01 |

| Sequence | switch fluorescence ratio |
| --- | --- |
| AATTTAAAGA | 1.02 |
| AATTTAACAA | 0.964 |
| AATTTCCTTC | 1.06 |
| AATTTCGCCA | 1.06 |
| AATTTGAGT | 0.981 |
| AATTTGCTCC | 1.06 |
| AATTTTAGC | 1.01 |
| AATTTTGGCA | 0.996 |
| AATTTTTATG | 0.911 |
| AATTTTTGGA | 0.998 |
| ACAAAAGGCT | 1.02 |
| ACAAAATCAA | 1.01 |
| ACAAACCTCG | 1.12 |
| ACAAACTAAG | 1.1 |
| ACAAAGCCCC | 1.08 |
| ACAAATCCGG | 0.994 |
| ACAAATCTAC | 1.03 |
| ACAAGAGGAT | 0.989 |
| ACAAGCGTTG | 0.996 |
| ACAAGCTTCG | 1.07 |
| ACAAGGC | 1.02 |
| ACAAGGCGCT | 1.03 |
| ACAAGGTTAG | 0.924 |
| ACAAGTCCTC | 1 |
| ACAATATCCG | 1.05 |
| ACAATCCTGA | 1.07 |

| Sequence | switch fluorescence ratio |
| --- | --- |
| ACAATGATG | 1.03 |
| ACAATGCGAG | 1.1 |
| ACAATGGGAC | 1.05 |
| ACAATGGGGT | 1.01 |
| ACAATGGTGG | 0.994 |
| ACAATGTCAC | 1.04 |
| ACAATTGGCT | 1.04 |
| ACACAAATAG | 1.03 |
| ACACAACCCC | 1.22 |
| ACACAATGTA | 0.998 |
| ACACACAGCT | 1.28 |
| ACACACCCAC | 1.54 |
| ACACACCGTG | 1.11 |
| ACACAGACAG | 1.12 |
| ACACAGCCGG | 1.09 |
| ACACAGCTTG | 0.954 |
| ACACATAGTC | 1.03 |
| ACACCCACCT | 1.5 |
| ACACCCGACC | 1.38 |
| ACACCGTACT | 1.47 |
| ACACCTGGAA | 1.07 |
| ACACGAGCTA | 0.994 |
| ACACGAGGTG | 1.15 |
| ACACGCACGA | 1.62 |
| ACACGCCG | 1.12 |
| ACACGCGGAG | 0.991 |

| Sequence | switch fluorescence ratio |
| --- | --- |
| ACACGCTGGG | 1.01 |
| ACACGGTAAC | 1.09 |
| ACACGGTCGA | 1.03 |
| ACACGGTCGC | 0.986 |
| ACACGTCTT | 0.983 |
| ACACGTGTGC | 1.01 |
| ACACTAAGAC | 1.14 |
| ACACTACATT | 1.26 |
| ACACTAGAAT | 1.01 |
| ACACTCGTAT | 1.02 |
| ACACTCTGCC | 1.19 |
| ACACTGCAAC | 2.4 |
| ACACTGCGCG | 1.06 |
| ACACTGGAT | 1 |
| ACACTTCACC | 1.33 |
| ACACTTCACG | 1.46 |
| ACACTTTTCA | 1.09 |
| ACAGAATCTG | 1.01 |
| ACAGAGACTA | 1.05 |
| ACAGATCGGG | 1.04 |
| ACAGATTAAG | 1.01 |
| ACAGCCTAT | 1.03 |
| ACAGCTAGTG | 1.01 |
| ACAGCTGGAT | 1.04 |
| ACAGCTTCTT | 1.01 |
| ACAGGAAAGT | 1.01 |

| Sequence | switch fluorescence ratio |
| --- | --- |
| ACAGGAAATG | 1.01 |
| ACAGGCACCT | 1.25 |
| ACAGGCATTA | 1.1 |
| ACAGGCGGAT | 1.04 |
| ACAGGGCAGC | 1.02 |
| ACAGGGGGTT | 0.977 |
| ACAGGTCCCG | 1.02 |
| ACAGGTCTTT | 1.02 |
| ACAGGTTATC | 1.02 |
| ACAGTCCGAA | 1.04 |
| ACAGTTACGA | 1.14 |
| ACAGTTTC | 1.01 |
| ACAGTTTTAT | 0.983 |
| ACAGTTTTCG | 0.98 |
| ACATAATGAT | 0.969 |
| ACATACCTGG | 1.3 |
| ACATAGATGA | 1.04 |
| ACATAGCATT | 1.24 |
| ACATATGGCC | 1.05 |
